{"source": "PubChem BioAssay AID485281", "about": "(National Center for Advancing Translational Sciences (NCATS), 2010)", "note": "Values joined by “and” are separate entries in the source; they are usually repeats but may differ in a detail not shown here. Identical values can stand only once. Hit rate of the full screen: of about 350,000 compounds, about 260 (0.074%) were called active. This list was built around the results that the source calls inconclusive (neither active nor inactive); the mix of calls is not that of the screen. Calls follow the shape of the dose curve; as a rule, active = well fitted inhibition curve with a large enough effect; inconclusive = small, poorly fitted or top-dose-only effect; inactive = no such curve, though single readings can be large or run the other way. Where the call is inconclusive, the potency comes from a doubtful curve fit. Potency is read from the fitted curve at half-maximal effect; tags tell the direction and shape of the fitted curve."}
{"biological_target": "Ferritin light chain (Equus caballus) (UniProt P02791)", "sequence (P02791 whole entry, looked up)": "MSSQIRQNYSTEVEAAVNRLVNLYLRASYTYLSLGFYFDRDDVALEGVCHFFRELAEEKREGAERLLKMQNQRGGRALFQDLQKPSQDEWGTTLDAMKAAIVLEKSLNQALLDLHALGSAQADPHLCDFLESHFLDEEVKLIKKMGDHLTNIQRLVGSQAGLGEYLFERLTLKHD", "experiment": "qHTS Assay for Identification of Novel General Anesthetics; also: nearly all actives have a fitted effect of over 20% in size", "settings": "apoferritin/1-aminoanthracene competitive binding, fluorescence; series mostly up to 77.5 µM", "outline": "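Horse-spleen apoferritin (10 uM) was mixed with 50% saturated 1-aminoanthracene in PBS, exposed to compounds for 10 min at room temperature, and read for fluorescence (ex 380 nm, em 535 nm). Competitive displacement was fitted with a four-parameter Hill equation.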"}
{"smiles": "CC(C)c1ccc2c(c1)C(c1cccs1)=NNC(c1ccncc1)=N2", "Potency": "inconclusive: 39.8 µM [inhibitor, single point]"}
{"smiles": "COC(=O)CSC(=S)N1C(C)CCCC1C", "note": "(stereo not drawn)", "Potency": "inconclusive: 31.6 µM [inhibitor, single point]"}
{"smiles": "CCOC(=O)N1CCc2c(sc3c2c(=O)n(CCc2ccccc2)c(=O)n3CC(=O)Nc2cccc(C)c2)C1", "Potency": "inactive"}
{"smiles": "CC1CN(S(=O)(=O)c2ccc(F)cc2)CN1C(=O)N1CCOCC1", "note": "(stereo not drawn)", "Potency": "inactive"}
{"smiles": "O=C(N/N=C/c1sc2ccccc2c1O)c1cccc2ccccc12", "Potency": "inactive"}
{"smiles": "O=C(O)C/C=C(\\NC(=O)OCc1ccccc1)C(=O)OCc1ccccc1", "Potency": "inconclusive: 25.1 µM [inhibitor, partial curve]"}
{"smiles": "Cc1cc(CSc2ccccc2)ccc1NC(=O)c1cccc([N+](=O)[O-])c1", "Potency": "inconclusive: 11.2 µM [inhibitor, partial curve]"}
{"smiles": "COC(=O)c1ccc(Cl)c(NC(=O)CN2CCC(C)CC2)c1", "Potency": "inconclusive: 22.4 µM [inhibitor, partial curve]"}
{"smiles": "O=C(CC(=O)Nc1nc(C23CC4CC(CC(C4)C2)C3)cs1)NCCO", "Potency": "inconclusive: 44.7 µM [inhibitor, single point]"}
{"smiles": "COc1ccccc1N=c1oc2c(OC)cccc2cc1C(=O)NCc1ccco1", "Potency": "inconclusive: 50.1 µM [inhibitor, single point]"}
{"smiles": "O=[N+]([O-])c1ccc(COc2ccc(-c3[nH]ncc3-c3ccc(Cl)cc3)c(O)c2)cc1", "Potency": "inconclusive: 11.2 µM [inhibitor, full curve]"}
{"smiles": "Cc1ccccc1CN1c2ccccc2-c2nc(SCC(N)=O)ncc2S1(=O)=O", "Potency": "inconclusive: 11.2 µM [inhibitor, full curve, poor fit]"}
{"smiles": "CCc1ccc(-c2nn(CC(=O)Nc3ccccc3C)c3c2cnc2ccc(C)cc23)cc1", "Potency": "inactive"}
{"smiles": "COC(=O)COc1ccc(-c2nnc(Nc3ccc(O)cc3)c3ccccc23)cc1", "Potency": "inconclusive: 2.24 µM [inhibitor, full curve, poor fit]"}
{"smiles": "COc1ccc(Oc2cc(C)c3ccccc3n2)cc1", "Potency": "inconclusive: 15.8 µM [inhibitor, partial curve]"}
{"smiles": "COc1ccc(CN2C(=O)c3ccccc3C2C(=O)NC2CCCC(C)C2C)c(OC)c1", "note": "(stereo not drawn)", "Potency": "inconclusive: 39.8 µM [inhibitor, partial curve]"}
{"smiles": "S=C(Nc1nc2c(s1)CCCC2)NC1CC1", "Potency": "inconclusive: 22.4 µM [inhibitor, partial curve]"}
{"smiles": "Cc1ccc(C(=O)NCCSC(C)(C)C)cc1", "Potency": "inconclusive: 39.8 µM [inhibitor, partial curve]"}
{"smiles": "COc1ccc(C(=O)CN2C(=O)NC(C)(c3ccc(C)cc3)C2=O)cc1OC", "note": "(stereo not drawn)", "Potency": "inconclusive: 28.2 µM [inhibitor, partial curve]"}
{"smiles": "Cc1cc(C)c(C)c(N=Nc2nc3ccccc3n2C)c1C", "Potency": "inconclusive: 50.1 µM [inhibitor, single point]"}
{"smiles": "Cc1ccc(CNC(=O)C(=O)Nc2c3c(nn2-c2ccc(F)cc2)CSC3)cc1", "Potency": "inconclusive: 50.1 µM [inhibitor, single point]"}
{"smiles": "Cc1ccc(C2C3=C(CC(C)(C)CC3=O)N=C3c4ccccc4C(=O)C32)cc1", "note": "(stereo not drawn)", "Potency": "inconclusive: 28.2 µM [inhibitor, partial curve]"}
{"smiles": "Cc1cc(OCC(O)CNC(C)c2ccccc2)ccc1C(C)C", "note": "(stereo not drawn)", "Potency": "inconclusive: 31.6 µM [inhibitor, partial curve]"}
{"smiles": "O=C(NCc1ccco1)c1ccc(Br)c(S(=O)(=O)N2CCCCC2)c1", "Potency": "inconclusive: 35.5 µM [inhibitor, partial curve]"}
{"smiles": "Cc1ccc(S(=O)(=O)Cc2ccc(C(=O)NCCc3ccccc3)o2)cc1", "Potency": "inactive"}
{"smiles": "CCOc1ccc(N(C)C(=O)c2oc(=O)c3ccccc3c2-c2ccccc2)cc1", "Potency": "inconclusive: 31.6 µM [inhibitor, partial curve, poor fit]"}
{"smiles": "COCc1cc(=O)n2[nH]c(-c3ccccc3)cc2n1", "Potency": "inactive"}
{"smiles": "Cc1ccccc1N(C(=O)c1snc(C(N)=O)c1N)C(C(=O)NC1CCCC1)c1ccco1", "note": "(stereo not drawn)", "Potency": "inactive"}
{"smiles": "Cc1cc(C)nc(NC(=O)Nc2ccccc2C(F)(F)F)n1", "Potency": "inconclusive: 15.8 µM [inhibitor, partial curve]"}
{"smiles": "CCn1cc2c(n1)-c1c(oc(C(=O)Nc3ccc(Br)cc3F)c1C)CC2", "Potency": "inactive"}
{"smiles": "COc1ccc(-c2nnc(-c3cccnc3)o2)cc1", "Potency": "inactive"}
{"smiles": "Cc1ccc(CN(C(=O)c2ccc(OCC(C)C)cc2)c2ccccn2)o1", "Potency": "inactive"}
{"smiles": "CN(C)CC(CCC(CN(C)C)C(=O)c1ccccc1)C(=O)c1ccccc1", "note": "(stereo not drawn)", "Potency": "inactive"}
{"smiles": "O=c1cc(CSc2nnc(-c3cccs3)n2Cc2ccccc2)nc2sc3ccccc3n12", "Potency": "inconclusive: 14.1 µM [inhibitor, partial curve]"}
{"smiles": "Cc1noc(C(=O)NCc2ccccc2)c1Cl", "Potency": "inconclusive: 35.5 µM [inhibitor, partial curve]"}
{"smiles": "O=[N+]([O-])c1cc(-c2cnc3ccccc3n2)ccc1Oc1ccc(F)cc1", "Potency": "inconclusive: 17.8 µM [inhibitor, partial curve]"}
{"smiles": "O=C(CN1C(=O)C2CCc3[nH]c4ccccc4c3C2C1=O)N1CCCC1", "note": "(stereo not drawn)", "Potency": "inconclusive: 31.6 µM [inhibitor, single point]"}
{"smiles": "COc1ccc(NCC(=O)N/N=C/C(C)c2ccccc2)cc1", "note": "(stereo not drawn)", "Potency": "inconclusive: 25.1 µM [inhibitor, partial curve]"}
{"smiles": "O=C(CSc1nc2ccccc2[nH]1)Nc1ccccc1F", "Potency": "inactive"}
{"smiles": "Clc1ccc(OCc2nnc(-c3ccccc3Br)o2)cc1", "Potency": "inconclusive: 35.5 µM [inhibitor, partial curve]"}
{"smiles": "O=C(CSc1ncc(-c2ccccc2)[nH]1)Nc1ccccc1", "Potency": "inconclusive: 35.5 µM [inhibitor, partial curve] and inconclusive: 28.2 µM [inhibitor, partial curve]"}
{"smiles": "CCOC(=O)C1CCN(C(=O)c2ccccc2NC(=O)c2nsc3ccccc23)CC1", "Potency": "inconclusive: 35.5 µM [inhibitor, partial curve]"}
{"smiles": "CCOc1ccc(NS(=O)(=O)c2c(C)nc3sc(C)c(C)n3c2=O)cc1", "Potency": "inconclusive: 50.1 µM [inhibitor, single point]"}
